The other results are listed elsewhere or left out. Binding of human transcription factors and regulators to the viral nucleoprotein by AlphaScreen, crude cell-free proteins, amounts not normalised, one pass. Fold of the Venus control; higher = more signal. No active / inactive call. Single-pass screen; sequences are the whole Swiss-Prot entries looked up by name.
B1: PTTG1, O95997 (protein)
chain: MATLIYVDKENGEPGTRVVAKDGLKLGSGPSIKALDGRSQVSTPRFGKTFDAPPALPKATRKALGTVNRATEKSVKTKGPLKQKQPSFSAKKMTEKTVKAKSSVPASDDAYPEIEKFFPFNPLDFESFDLPEEHQIAHLPLSGVPLMILDEERELEKLFQLGPPSPVKMPSPPWESNLLQSPSSILSTLDVELPPVCCDIDI
B2: UFL1, O94874 (protein)
chain: MADAWEEIRRLAADFQRAQFAEATQRLSERNCIEIVNKLIAQKQLEVVHTLDGKEYITPAQISKEMRDELHVRGGRVNIVDLQQVINVDLIHIENRIGDIIKSEKHVQLVLGQLIDENYLDRLAEEVNDKLQESGQVTISELCKTYDLPGNFLTQALTQRLGRIISGHIDLDNRGVIFTEAFVARHKARIRGLFSAITRPTAVNSLISKYGFQEQLLYSVLEELVNSGRLRGTVVGGRQDKAVFVPDIYSRTQSTWVDSFFRQNGYLEFDALSRLGIPDAVSYIKKRYKTTQLLFLKAACVGQGLVDQVEASVEEAISSGTWVDIAPLLPTSLSVEDAAILLQQVMRAFSKQASTVVFSDTVVVSEKFINDCTELFRELMHQKAEKEMKNNPVHLITEEDLKQISTLESVSTSKKDKKDERRRKATEGSGSMRGGGGGNAREYKIKKVKKKGRKDDDSDDESQSSHTGKKKPEISFMFQDEIEDFLRKHIQDAPEEFISELAEYLIKPLNKTYLEVVRSVFMSSTTSASGTGRKRTIKDLQEEVSNLYNNIRLFEKGMKFFADDTQAALTKHLLKSVCTDITNLIFNFLASDLMMAVDDPAAITSEIRKKILSKLSEETKVALTKLHNSLNEKSIEDFISCLDSAAEACDIMVKRGDKKRERQILFQHRQALAEQLKVTEDPALILHLTSVLLFQFSTHSMLHAPGRCVPQIIAFLNSKIPEDQHALLVKYQGLVVKQLVSQSKKTGQGDYPLNNELDKEQEDVASTTRKELQELSSSIKDLVLKSRKSSVTEE
B3: FOXA2, Q9Y261 (protein)
chain: MLGAVKMEGHEPSDWSSYYAEPEGYSSVSNMNAGLGMNGMNTYMSMSAAAMGSGSGNMSAGSMNMSSYVGAGMSPSLAGMSPGAGAMAGMGGSAGAAGVAGMGPHLSPSLSPLGGQAAGAMGGLAPYANMNSMSPMYGQAGLSRARDPKTYRRSYTHAKPPYSYISLITMAIQQSPNKMLTLSEIYQWIMDLFPFYRQNQQRWQNSIRHSLSFNDCFLKVPRSPDKPGKGSFWTLHPDSGNMFENGCYLRRQKRFKCEKQLALKEAAGAAGSGKKAAAGAQASQAQLGEAAGPASETPAGTESPHSSASPCQEHKRGGLGELKGTPAAALSPPEPAPSPGQQQQAAAHLLGPPHHPGLPPEAHLKPEHHYAFNHPFSINNLMSSEQQHHHSHHHHQPHKMDLKAYEQVMHYPGYGSPMPGSLAMGPVTNKTGLDASPLAADTSYYQGVYSRPIMNSS
B4: NFATC1, O95644 (protein)
chain: MPSTSFPVPSKFPLGPAAAVFGRGETLGPAPRAGGTMKSAEEEHYGYASSNVSPALPLPTAHSTLPAPCHNLQTSTPGIIPPADHPSGYGAALDGGPAGYFLSSGHTRPDGAPALESPRIEITSCLGLYHNNNQFFHDVEVEDVLPSSKRSPSTATLSLPSLEAYRDPSCLSPASSLSSRSCNSEASSYESNYSYPYASPQTSPWQSPCVSPKTTDPEEGFPRGLGACTLLGSPRHSPSTSPRASVTEESWLGARSSRPASPCNKRKYSLNGRQPPYSPHHSPTPSPHGSPRVSVTDDSWLGNTTQYTSSAIVAAINALTTDSSLDLGDGVPVKSRKTTLEQPPSVALKVEPVGEDLGSPPPPADFAPEDYSSFQHIRKGGFCDQYLAVPQHPYQWAKPKPLSPTSYMSPTLPALDWQLPSHSGPYELRIEVQPKSHHRAHYETEGSRGAVKASAGGHPIVQLHGYLENEPLMLQLFIGTADDRLLRPHAFYQVHRITGKTVSTTSHEAILSNTKVLEIPLLPENSMRAVIDCAGILKLRNSDIELRKGETDIGRKNTRVRLVFRVHVPQPSGRTLSLQVASNPIECSQRSAQELPLVEKQSTDSYPVVGGKKMVLSGHNFLQDSKVIFVEKAPDGHHVWEMEAKTDRDLCKPNSLVVEIPPFRNQRITSPVHVSFYVCNGKRKRSQYQRFTYLPANVPIIKTEPTDDYEPAPTCGPVSQGLSPLPRPYYSQQLAMPPDPSSCLVAGFPPCPQRSTLMPAAPGVSPKLHDLSPAAYTKGVASPGHCHLGLPQPAGEAPAVQDVPRPVATHPGSPGQPPPALLPQQVSAPPSSSCPPGLEHSLCPSSPSPPLPPATQEPTCLQPCSPACPPATGRPQHLPSTVRRDESPTAGPRLLPEVHEDGSPNLAPIPVTVKREPEELDQLYLDDVNEIIRNDLSSTSTHS
B5: NFIL3, Q16649 (protein)
chain: MQLRKMQTVKKEQASLDASSNVDKMMVLNSALTEVSEDSTTGEELLLSEGSVGKNKSSACRRKREFIPDEKKDAMYWEKRRKNNEAAKRSREKRRLNDLVLENKLIALGEENATLKAELLSLKLKFGLISSTAYAQEIQKLSNSTAVYFQDYQTSKSNVSSFVDEHEPSMVSSSCISVIKHSPQSSLSDVSEVSSVEHTQESSVQGSCRSPENKFQIIKQEPMELESYTREPRDDRGSYTASIYQNYMGNSFSGYSHSPPLLQVNRSSSNSPRTSETDDGVVGKSSDGEDEQQVPKGPIHSPVELKHVHATVVKVPEVNSSALPHKLRIKAKAMQIKVEAFDNEFEATQKLSSPIDMTSKRHFELEKHSAPSMVHSSLTPFSVQVTNIQDWSLKSEHWHQKELSGKTQNSFKTGVVEMKDSGYKVSDPENLYLKQGIANLSAEVVSLKRLIATQPISASDSG
B6: CAMTA2, O94983 (protein)
chain: MNTKDTTEVAENSHHLKIFLPKKLLECLPRCPLLPPERLRWNTNEEIASYLITFEKHDEWLSCAPKTRPQNGSIILYNRKKVKYRKDGYLWKKRKDGKTTREDHMKLKVQGMECLYGCYVHSSIVPTFHRRCYWLLQNPDIVLVHYLNVPALEDCGKGCSPIFCSISSDRREWLKWSREELLGQLKPMFHGIKWSCGNGTEEFSVEHLVQQILDTHPTKPAPRTHACLCSGGLGSGSLTHKCSSTKHRIISPKVEPRALTLTSIPHAHPPEPPPLIAPLPPELPKAHTSPSSSSSSSSSGFAEPLEIRPSPPTSRGGSSRGGTAILLLTGLEQRAGGLTPTRHLAPQADPRPSMSLAVVVGTEPSAPPAPPSPAFDPDRFLNSPQRGQTYGGGQGVSPDFPEAEAAHTPCSALEPAAALEPQAAARGPPPQSVAGGRRGNCFFIQDDDSGEELKGHGAAPPIPSPPPSPPPSPAPLEPSSRVGRGEALFGGPVGASELEPFSLSSFPDLMGELISDEAPSIPAPTPQLSPALSTITDFSPEWSYPEGGVKVLITGPWTEAAEHYSCVFDHIAVPASLVQPGVLRCYCPAHEVGLVSLQVAGREGPLSASVLFEYRARRFLSLPSTQLDWLSLDDNQFRMSILERLEQMEKRMAEIAAAGQVPCQGPDAPPVQDEGQGPGFEARVVVLVESMIPRSTWKGPERLAHGSPFRGMSLLHLAAAQGYARLIETLSQWRSVETGSLDLEQEVDPLNVDHFSCTPLMWACALGHLEAAVLLFRWNRQALSIPDSLGRLPLSVAHSRGHVRLARCLEELQRQEPSVEPPFALSPPSSSPDTGLSSVSSPSELSDGTFSVTSAYSSAPDGSPPPAPLPASEMTMEDMAPGQLSSGVPEAPLLLMDYEATNSKGPLSSLPALPPASDDGAAPEDADSPQAVDVIPVDMISLAKQIIEATPERIKREDFVGLPEAGASMRERTGAVGLSETMSWLASYLENVDHFPSSTPPSELPFERGRLAVPSAPSWAEFLSASTSGKMESDFALLTLSDHEQRELYEAARVIQTAFRKYKGRRLKEQQEVAAAVIQRCYRKYKQLTWIALKFALYKKMTQAAILIQSKFRSYYEQKRFQQSRRAAVLIQQHYRSYRRRPGPPHRTSATLPARNKGSFLTKKQDQAARKIMRFLRRCRHRMRELKQNQELEGLPQPGLAT
B7: AATF, Q9NY61 (protein)
chain: MAGPQPLALQLEQLLNPRPSEADPEADPEEATAARVIDRFDEGEDGEGDFLVVGSIRKLASASLLDTDKRYCGKTTSRKAWNEDHWEQTLPGSSDEEISDEEGSGDEDSEGLGLEEYDEDDLGAAEEQECGDHRESKKSRSHSAKTPGFSVQSISDFEKFTKGMDDLGSSEEEEDEESGMEEGDDAEDSQGESEEDRAGDRNSEDDGVVMTFSSVKVSEEVEKGRAVKNQIALWDQLLEGRIKLQKALLTTNQLPQPDVFPLFKDKGGPEFSSALKNSHKALKALLRSLVGLQEELLFQYPDTRYLVDGTKPNAGSEEISSEDDELVEEKKQQRRRVPAKRKLEMEDYPSFMAKRFADFTVYRNRTLQKWHDKTKLASGKLGKGFGAFERSILTQIDHILMDKERLLRRTQTKRSVYRVLGKPEPAAQPVPESLPGEPEILPQAPANAHLKDLDEEIFDDDDFYHQLLRELIERKTSSLDPNDQVAMGRQWLAIQKLRSKIHKKVDRKASKGRKLRFHVLSKLLSFMAPIDHTTMNDDARTELYRSLFGQLHPPDEGHGD
B8: CREBRF, Q8IUR6 (protein)
chain: MPQPSVSGMDPPFGDAFRSHTFSEQTLMSTDLLANSSDPDFMYELDREMNYQQNPRDNFLSLEDCKDIENLESFTDVLDNEGALTSNWEQWDTYCEDLTKYTKLTSCDIWGTKEVDYLGLDDFSSPYQDEEVISKTPTLAQLNSEDSQSVSDSLYYPDSLFSVKQNPLPSSFPGKKITSRAAAPVCSSKTLQAEVPLSDCVQKASKPTSSTQIMVKTNMYHNEKVNFHVECKDYVKKAKVKINPVQQSRPLLSQIHTDAAKENTCYCGAVAKRQEKKGMEPLQGHATPALPFKETQELLLSPLPQEGPGSLAAGESSSLSASTSVSDSSQKKEEHNYSLFVSDNLGEQPTKCSPEEDEEDEEDVDDEDHDEGFGSEHELSENEEEEEEEEDYEDDKDDDISDTFSEPGYENDSVEDLKEVTSISSRKRGKRRYFWEYSEQLTPSQQERMLRPSEWNRDTLPSNMYQKNGLHHGKYAVKKSRRTDVEDLTPNPKKLLQIGNELRKLNKVISDLTPVSELPLTARPRSRKEKNKLASRACRLKKKAQYEANKVKLWGLNTEYDNLLFVINSIKQEIVNRVQNPRDERGPNMGQKLEILIKDTLGLPVAGQTSEFVNQVLEKTAEGNPTGGLVGLRIPTSKV

Biological target: nucleoprotein N of Crimean-Congo hemorrhagic fever virus
Assay: AlphaScreen luminescence signal relative to Venus negative control (fold); higher = stronger binding to CCHFV N
Method: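 AlphaScreen binding of cell-free made, FLAG-GST-tagged human transcription factors and regulators (crude translation products) to biotinylated N protein; signal as fold of the FLAG-GST-Venus control. One pass.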

Binder	AlphaScreen luminescence signal
B1	6.56
B2	9.44
B3	2.19
B4	2.33
B5	3.02
B6	2.47
B7	1.72
B8	2.42

Source: the supplement of paper PMC12423691
